In patent US8841342B2, “Carrier” (Vital Health Sciences Pty. Ltd., priority 2002, dated 2014):

How the values were obtained:
[1] = system: Conscious Sprague Dawley rats; assay type: in vivo; conditions: topical administration
Method: Concious Sprague Dawley rats also received atropine sulphate 2 mg/kg by intravenous administration. Results are set out in FIGS. 7 and 8. • P<0.01 for 6 hours after atropine sulfate administration versus pre-drug baseline (1-way RM ANOVA). • P<0.01 for atropine sulfate effect versus vehicle (2-way RM ANOVA). • P<0.01 for 5 min after atropine phosphate administration versus pre-drug baseline (1-way RM ANOVA). • ^+P<0.05 for atropine phosphate treatment/time interaction versus vehicle (2-way RM ANOVA). […] This effect was significant versus its own pre-drug baseline and IV administered atropine sulphate (1-way ANOVA with repeated measures, P<0.01), as well as against the vehicle-treated group (2-way ANOVA with repeated measures, P<0.01). […] This effect was significant versus its own pre-drug baseline, as well as against the vehicle-treated group (2-way ANOVA with repeated measures, treatment/time interaction, P<0.01). […] Conclusion

[2] = system: Conscious Sprague Dawley rats; assay: Atropine intravenous studies, heart rate and mean arterial pressure in conscious rats; assay type: in vivo; conditions: for effect on mean arterial pressure (MAP) / duration of HR increase after injection / effect on heart rate (HR): 2 mg/kg IV; for duration of HR increase after injection / effect on heart rate (HR): naive rats; for effect on heart rate (HR): P<0.05
Method: Saline was given to all animals (n=7) prior to administration of either atropine formulation. Results are set out in FIGS. 5 and 6. • P<0.05 for first 60 min after administration versus pre-drug baseline, for atropine sulfate given to naive rats. • P<0.05 for first 30 min after administration versus pre-drug baseline, for atropine sulfate given to rats treated 24 hours previously with atropine phosphate. • P<0.05 for first 30 min after administration versus pre-drug baseline, for atropine phosphate given to naive rats. […] This effect lasted for approximately 30 min after injection. • Atropine sulfate was also given (on a subsequent day) to 3 out of 4 rats that had previously received (i.e. after) atropine phosphate. […] Transdermal Patch Studies

`CN1[C@@H]2CC[C@H]1CC(OC(=O)C(CO)c1ccccc1)C2.O=P(O)(O)O` (stereo partly drawn) [Atropine phosphate, atropine phosphate] was tested, and the “effectiveness compared with atropine” value [1] was “less effective”, the “effect on mean arterial pressure (MAP)” value [2] was “not MAP” and the “duration of HR increase after injection” value [2] was “approximately 30 min”. The “effect on heart rate (HR)” value [2] was “significant increase in HR” and the “activity compared with atropine” value ([2]; IV administration) was “similarly active to atropine”.

For `CN1[C@@H]2CC[C@H]1C[C@@H](OC(=O)C(CO)c1ccccc1)C2` (stereo partly drawn) [Atropine sulfate, atropine sulphate], the “effect on mean arterial pressure (MAP)” value [2] was “not MAP”, the “time course of increased HR” value ([2]; 2 mg/kg IV on a subsequent day to rats previously given atropine phosphate) was “very similar time course of increased HR” and the “duration of HR increase after injection” value [2] was “approximately 60 min”. For the same compound, the “effect on heart rate (HR)” value [2] was “significant increase in HR”.

Structures can show the parent of a compound that is named as a salt.
